Experimental data: the supplement of paper PMC11417369
± gives the standard deviation of the averaged measurements. Some of the results follow.

What follows are sequences tested on PfAP2-LT AP2 domain (GST-tagged) (assay: gcPBM binding intensity (ln(normalized median fluorescence intensity)); higher = stronger DNA binding).
Outline: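 DNA-binding domains from P. falciparum, fused to GST and produced in E. coli, were put on an Agilent 4 × 180k double-stranded probe array for 1 h in 1× PBS holding 1% milk, 0.2 mg/ml BSA, 0.5% salmon testes DNA and 0.03% Triton X-100. Probes were primer-extended, 36 bp long and drawn from intergenic genomic regions, with negative controls included. After Alexa488 anti-GST antibody detection and a 488 nm scan, binding intensity was set as the highest Masliner-normalised natural-log median intensity across replicate spots of either probe orientation.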

Sequence | gcPBM binding intensity (ln)
TTTCACTTTTTCCAAAGTACATATATAAAAATTAAT [XGTACX_site6947] | 8.21 ± 0.3
TTTTAATAAATATACACACACAAAAAAAAAAAAAAA [CACACA_site3971] | 8.93 ± 0.44
AATAAAAAGACATTCACACATATATATTATTTATAT [CACACA_site5936] | 8.86 ± 0.39
AATATATAGAAACACACACACAAAAAAAAAAAAAAA [CACACA_site1326] | 9.27 ± 0.47
GACCAATTCAAATATGCACACAAATTTGAAAACGAT [CACACA_site9202] | 9.31 ± 0.42
AGATTATAAAATTCTACACACATATATACATATATA [CACACA_site3485] | 8.91 ± 0.36
ATATAAAAAAAAAAAAGTACACATAAACAAATGCAT [XGTACX_site4241] | 8.91 ± 0.49
ATATGTAGAAGTAATGCACACATATGTATATATATA [CACACA_site8796] | 9.34 ± 0.33
TTAAAATATAATATTCGTACTTATTCAAAAGAAAAA [XGTACX_site2122] | 8.13 ± 0.51
CATAATACAGATAACACACACAATTATACATAAAAT [CACACA_site5742] | 9.59 ± 0.39
TATATTTAGATATATACACACATTAGCATTTTCATA [CACACA_site6902] | 8.86 ± 0.4
CTAATGATCATATATACACACACACTAATAAAAAAA [CACACA_site9329] | 9.64 ± 0.14
AAAGAATTTGCATATACACACAAAAAGATATATACA [CACACA_site6318] | 9.04 ± 0.44
AACGAAAACACTACGTGTACCAAACGTCCTACTAAC [XGTACX_site4915] | 9.02 ± 0.42
CATACATATACATACAGTACATATTTTTTGTCAATT [XGTACX_site7357] | 8.89 ± 0.42
GTATATATTTTTATTTAATAATTTGTTTATTTATTC [CACACA_negctrl_site647] | 8.65 ± 0.54
TTATATGGCTCCATTTGTACGCATCCATGTTTTTAT [XGTACX_site6590] | 9.2 ± 0.39
GTATGTATATATATATGTACATACTGTTTATCGTTA [XGTACX_site6168] | 8.9 ± 0.44
AAAAAAAAAAAAAAAGCACACATCATATTATAATTC [CACACA_site3355] | 8.88 ± 0.42
AGTTATTAAAAATGTGCATGCAATGGTTTCTCTTAA [TGCATGCA_site634] | 9.04 ± 0.35
AAAAAAACATAACAAAATGAAACAAAACAAAAAGAA [GTGCAC_negctrl_site577] | 8.99 ± 0.52
ATTTATAATGATTTTTTTAGTAATCTTGTTATTTTT [XGTACX_negctrl_site373] | 8.63 ± 0.52

Sequence | gcPBM binding intensity (ln)
TCTTTTTTTTCTTTTTTTTTATTTAAATATCAAGTA [CACACA_negctrl_site1354] | 8.26 ± 0.55
AGGAGGTCAGTTCACAGTACCCAGAAACTCTACGAG [XGTACX_site2006] | 8.62 ± 0.56
TCATATTATAATGTGAGTACATATAATAAATAAGTT [XGTACX_site2470] | 8.82 ± 0.49
ATGTTTGTCTATAGCTGTACCTATTTATAAAACGTA [XGTACX_site7157] | 8.79 ± 0.43
GTAAAAATTTTAAATACATGCAAGCGATTAATATGA [TGCATGCA_site80] | 8.71 ± 0.39
TTAATATGATATATATATATATATATATATATATAT [CACACA_negctrl_site683] | 9.585 ± 0.092
ATATTTCTGTCAAGCACACATAATATTAAAATATGT [CACACA_site4330] | 9.15 ± 0.24
ATTTAGAAAAATAAAACACACATATAGATGTAAATA [CACACA_site7853] | 8.81 ± 0.52
ACAGAAAAAAAACACACACACATAATATACATACAT [CACACA_site1932] | 9.82 ± 0.19
TATACATATATAAATGCATGTTGATATTAATAGTTA [TGCATGCA_site639] | 8.71 ± 0.33
AGGAGACTTAAAAAAAGTACAAAAAAAAAAAAAAGC [XGTACX_site1576] | 9.06 ± 0.67
TATTTTTTTTTCTTTTTATATATAATAATCTTCATT [GTGCAC_negctrl_site80] | 8.47 ± 0.61
GTATATATGTATATATGTACATATATACATTTTGTT [XGTACX_site7320] | 9.04 ± 0.2
CGTTAAAGGGAATGTATACACACGTTTCTCTATGTT [CACACA_site1198] | 9.16 ± 0.32
TTAAATAATATTAAATGTACATATTATTATGATATA [XGTACX_site6189] | 8.44 ± 0.41
TTATAACAACTGGAATGATTAACAATAAATATTAAA [CACACA_negctrl_site1723] | 8.53 ± 0.44
TATATATTTAACAATCGTACATATTTACAAATATAA [XGTACX_site2131] | 8.32 ± 0.4
CCTGTAAATAAATATAAATACATATTTCTAATATAT [GTGCAC_negctrl_site21] | 8.54 ± 0.41
AAACATAAGAGACACACACACATATATAAATAAATA [CACACA_site7674] | 9.79 ± 0.38
AGGAGGTCAGTTCACAGTACCCAGGAAATCTACGGA [XGTACX_site2552] | 8.71 ± 0.56
AAAAATAAAATAAAGAAGGAAAATAAAAAAATAAGG [CACACA_negctrl_site1811] | 8.71 ± 0.63
AATTTCATAAATATAACTGAGAATAAATAAACAAAG [GTGCAC_negctrl_site146] | 8.57 ± 0.44
